{"source": "PubChem BioAssay AID602310", "about": "(National Center for Advancing Translational Sciences (NCATS), 2012)", "note": "Among all 410,000 compounds or so, about 310 (0.076%) were called active. This list was built around the results that the source calls inconclusive (neither active nor inactive); the mix of calls is not that of the screen. Calls come from the whole dose curve; as a rule, active = well fitted curve in the direction sought with a large enough effect; inconclusive = small, poorly fitted or top-dose-only effect; inactive = flat fitted curve, though single readings scatter. Potencies of inconclusive entries are doubtful fits and often do not repeat. % is set by controls: 0 for no effect and ±100 for the full control effect; potency is the fitted concentration of half-maximal effect; tags give direction and shape of the fitted curve."}
{"biological_target": "DNA dC->dU-editing enzyme APOBEC-3G (Homo sapiens) (UniProt Q9HC16)", "sequence (Q9HC16 whole entry, looked up)": "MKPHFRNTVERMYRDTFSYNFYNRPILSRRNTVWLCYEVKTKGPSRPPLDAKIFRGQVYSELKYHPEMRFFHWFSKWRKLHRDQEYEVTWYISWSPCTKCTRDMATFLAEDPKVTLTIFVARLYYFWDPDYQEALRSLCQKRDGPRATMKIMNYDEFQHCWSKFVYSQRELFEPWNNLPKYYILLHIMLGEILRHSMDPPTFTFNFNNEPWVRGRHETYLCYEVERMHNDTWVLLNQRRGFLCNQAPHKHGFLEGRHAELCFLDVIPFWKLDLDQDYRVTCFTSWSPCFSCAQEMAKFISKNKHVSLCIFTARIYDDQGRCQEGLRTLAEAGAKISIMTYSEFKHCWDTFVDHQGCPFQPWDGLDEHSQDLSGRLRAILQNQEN", "assay": "qHTS for Inhibitors of Vif-A3G Interactions: qHTS; note: nearly all actives have a fitted effect of over 60% in size;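 for activity, negative = active: hits raise eYFP signal because A3G escapes Vif-driven loss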", "conditions": "HeLa A3G-eYFP + Vif (tagged APOBEC3G with the HIV-1 protein that degrades it), YFP fluorescence, overnight; series mostly up to 46.1 µM; activity, negative = active: at the top concentration", "method_in_brief": "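Read-out is eYFP fluorescence (Ex 488/Em 500-530) from Vif-expressing HeLa A3G-eYFP cells; more signal means A3G escaped Vif-mediated degradation. Cells plated overnight, compound pinned in, incubated overnight at 37 deg C.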"}
{"smiles": "COc1ccc(/C=C2\\Oc3cc(OC(=O)N4CCOCC4)ccc3C2=O)c(OC)c1", "Potency": "inconclusive: 35.5 µM [inhibitor, single point]"}
{"smiles": "CCCC1=Nc2cc(C(=O)NC3CCC(C)CC3)ccc2Sc2ccccc21", "note": "(stereo unspecified)", "Potency": "inconclusive: 3.55 µM [inhibitor, partial curve, poor fit]"}
{"smiles": "O=C1NC(=O)C(=Cc2ccc(Sc3ccccc3)o2)C(=O)N1", "Potency": "inconclusive: 20 µM [inhibitor, single point]"}
{"smiles": "C/C=C1/CC(C)C(C)(O)C(=O)OCC2CCN3CCC(OC1=O)C23", "note": "(stereo unspecified)", "activity, negative = active": "inactive: 0.444%"}
{"smiles": "O=C1CC(=O)N(Cc2ccccc2)C(=O)N1CCCCCCN1C(=O)CC(=O)N(Cc2ccccc2)C1=O", "Potency": "inconclusive: 35.5 µM [inhibitor, partial curve, poor fit]"}
{"smiles": "CCOC(=O)C1(CCCc2ccccc2)CCN(C2CCCC2)CC1", "activity, negative = active": "inactive: 0.583%"}
{"smiles": "COc1ccc(-c2nc(CN3C(=O)CN=C(c4ccccc4)c4ccccc43)c(C)o2)cc1", "activity, negative = active": "inactive: -7.67%"}
{"smiles": "COc1cc(OC)c(/C=C2\\C(=O)Nc3ccccc32)c(OC)c1", "Potency": "inconclusive: 1.26 µM [inhibitor, full curve]"}
{"smiles": "O=C1NC(=S)NC(=O)C1=Cc1cccc2cc3ccccc3cc12", "Potency": "inconclusive: 22.4 µM [inhibitor, single point]"}
{"smiles": "Cc1ccc(N2C(=O)NC(=O)/C(=C\\C=C\\c3ccco3)C2=O)cc1C", "Potency": "inconclusive: 6.31 µM [inhibitor, full curve, poor fit]"}
{"smiles": "CC(C)CCCn1c(O)c(/C=C2/C=CC=N2)c(=O)[nH]c1=O", "Potency": "inconclusive: 25.1 µM [inhibitor, single point]"}
{"smiles": "O=c1[nH]c(=S)n(CCC2=CCCCC2)c(O)c1/C=N/N1CCOCC1", "activity, negative = active": "inactive: -5.14%"}
{"smiles": "CC(C)N1C(=O)CC2(CC[N+](C)(CCOC(=O)C(O)(c3ccccc3)c3ccccc3)CC2)C1=O", "note": "(stereo unspecified)", "activity, negative = active": "inactive: -9.49%"}
{"smiles": "O=C(Nc1nc2ccccc2n1CCN1CCCC1)c1ccc(Cl)cc1", "Potency": "inconclusive: 35.5 µM [inhibitor, single point]"}
{"smiles": "CCCCCCn1c(O)c(C=NCCN2CCOCC2)c(=O)[nH]c1=O", "activity, negative = active": "inactive: 1.68%"}
{"smiles": "O=C(/C=C/c1ccccc1)c1c(O)n(CCc2ccccc2)c(=O)[nH]c1=O", "Potency": "inconclusive: 6.31 µM [inhibitor, single point]"}
{"smiles": "O=C1NC(=S)SC1=Cc1ccc(N(CCCl)CCCl)cc1", "Potency": "inconclusive: 3.98 µM [inhibitor, full curve]"}
{"smiles": "C[C@H](CO)N1C[C@H](C)[C@H](CN(C)C(=O)Oc2ccccc2)OCc2cnnn2CCCC1=O", "activity, negative = active": "inactive: 0.841%"}
{"smiles": "O=C(c1cc2c(s1)-c1ccccc1OC2)N1CCC2(CC1)OCCO2", "Potency": "inconclusive: 11.2 µM [inhibitor, partial curve, poor fit]"}
{"smiles": "CC(=NCCCN1CCCCC1)c1c(O)n(Cc2ccccc2)c(=O)[nH]c1=O", "activity, negative = active": "inactive: 0.118%"}
{"smiles": "O=c1c2ccccc2nc(/C=C/c2ccco2)n1-c1ccccc1O", "Potency": "inconclusive: 35.5 µM [inhibitor, single point]"}
{"smiles": "C=C1C(=O)OC2CC3(C)OC3CCC(C)=CC(OC(C)=O)C12", "note": "(stereo unspecified)", "Potency": "inconclusive: 22.4 µM [inhibitor, single point]"}
{"smiles": "Cc1cc(N(CCCl)CCCl)ccc1C=Cc1ccncn1", "Potency": "inconclusive: 22.4 µM [inhibitor, single point]"}
{"smiles": "COc1cc(/C=C/c2nc3ccccc3c(=O)n2-c2cccc(O)c2)ccc1O", "Potency": "inconclusive: 11.2 µM [inhibitor, single point]"}
{"smiles": "Brc1ccccc1Cn1c(-c2cncs2)nc2ccccc21", "Potency": "inconclusive: 12.6 µM [inhibitor, partial curve, poor fit]"}
{"smiles": "O=C1CN=C(c2cccc(Br)c2)c2cc(Br)ccc2N1", "Potency": "inconclusive: 20 µM [inhibitor, partial curve, poor fit]"}
{"smiles": "Cc1ccc(-n2c(O)c(/C=C3/C(c4ccccc4)=Nc4ccccc43)c(=O)[nH]c2=O)cc1", "Potency": "inconclusive: 2.24 µM [inhibitor, full curve, poor fit]"}
{"smiles": "Cc1ccc(C(C#N)=Cc2ccc3c(c2)OCO3)cc1", "Potency": "inconclusive: 2.82 µM [inhibitor, full curve]"}
{"smiles": "O=C1NC(=O)N(c2ccccc2)C(=O)/C1=C/c1ccc(Sc2ccccc2)o1", "Potency": "inconclusive: 31.6 µM [inhibitor, partial curve, poor fit]"}
{"smiles": "COc1ccc(CNC(=O)/C=C/c2ccc3[nH]cc(CCN(C)C)c3c2)cc1", "Potency": "inactive"}
{"smiles": "CCCCC(=O)N/N=C/c1c(O)n(CC)c(=S)n(CC)c1=O", "Potency": "inconclusive: 5.62 µM [inhibitor, full curve]"}
{"smiles": "CCOC(=O)c1c(-n2c(C)cc(C=C3C(=O)NC(=S)NC3=O)c2C)sc2c1CCCC2", "Potency": "inconclusive: 35.5 µM [inhibitor, single point]"}
{"smiles": "O=C1NC(=O)N(Cc2ccc(F)cc2)C(=O)/C1=C\\c1ccoc1", "activity, negative = active": "inactive: 2.09%"}
{"smiles": "NCC(=O)c1ccc(Cl)c(Cl)c1", "activity, negative = active": "inactive: -5.22%"}
{"smiles": "COC[C@H]1OC(=O)c2coc3c2[C@@]1(C)C1=C(C3=O)[C@@H]2CCC(=O)[C@@]2(C)C[C@H]1OC(C)=O", "Potency": "inconclusive: 17.8 µM [inhibitor, single point]"}
{"smiles": "C=CCn1c(=O)c(C=Nc2c(OC)cccc2[N+](=O)[O-])c(O)n(CCCC)c1=O", "Potency": "inconclusive: 22.4 µM [inhibitor, single point]"}
{"smiles": "C/C(=N\\N1CCCCC1c1cccnc1)c1c(O)n(C2CCCCC2)c(=S)[nH]c1=O", "note": "(stereo unspecified)", "Potency": "inconclusive: 28.2 µM [inhibitor, single point]"}
{"smiles": "Oc1cc2c(cc1O)[C@H]1c3ccccc3CN[C@@H]1CC2", "activity, negative = active": "inactive: -6.65%"}
{"smiles": "COc1cccc(OC)c1-c1nn2c(-c3n[nH]c4c3CCC4)nnc2s1", "Potency": "inconclusive: 35.5 µM [inhibitor, single point]"}
{"smiles": "O=c1[nH]c(CN2CC=C(c3ccccc3)CC2)nc2scc(-c3ccccc3)c12", "Potency": "inconclusive: 17.8 µM [inhibitor, single point]"}
{"smiles": "CCCC1(CCC)C(=O)NC(=NCc2ccccc2)NC1=O", "Potency": "inconclusive: 25.1 µM [inhibitor, single point]"}
{"smiles": "CCC(C)c1ccc(N2C(=O)NC(=O)/C(=C/c3cccn3CCOc3ccc(C)cc3)C2=O)cc1", "note": "(stereo unspecified)", "activity, negative = active": "inactive: -8.44%"}
{"smiles": "Cc1ccccc1CCNCc1ccc(Br)cc1", "activity, negative = active": "inactive: -4.68%"}
{"smiles": "C/C1=C\\[C@@H](C)C/C=C/[C@H]2[C@@H]3O[C@]3(C)[C@@H](C)[C@H]3[C@H](Cc4c[nH]c5ccccc45)NC(=O)[C@]32C(=O)/C=C/C(=O)[C@@H]1O", "activity, negative = active": "inactive: -14.5%"}
{"smiles": "Cc1ccc(NP(=O)(Oc2ccccc2)Oc2ccccc2)cc1", "activity, negative = active": "inactive: -9.53%"}
{"smiles": "CCC(C)C(=O)N[C@@H](c1ccccc1)[C@@H](O)C(=O)O[C@H]1C[C@@]2(O)[C@@H](OC(=O)c3ccccc3)C3[C@](C)(C(=O)[C@H](OC(C)=O)C(=C1C)C2(C)C)[C@@H](O)C[C@H]1OC[C@@]31OC(C)=O", "note": "(stereo partly specified)", "activity, negative = active": "inactive: -39.3%"}
{"smiles": "CC(Cc1ccccc1)NC(N)=O", "note": "(stereo unspecified)", "activity, negative = active": "inactive: 4.08%"}
{"smiles": "COc1cc2c(cc1O)[C@@H]1Cc3ccc(OC)c(O)c3CN1CC2", "Potency": "inconclusive: 11.2 µM [inhibitor, partial curve]"}
{"smiles": "COc1ccc2nc(/N=C/c3c(O)n(-c4cccc(Cl)c4)c(=O)[nH]c3=O)sc2c1", "Potency": "inconclusive: 25.1 µM [inhibitor, single point]"}
{"smiles": "Oc1ccccc1/C=N/NP(=S)(c1ccccc1)c1ccccc1", "activity, negative = active": "inactive: -0.784%"}
{"smiles": "Cc1ccc(-n2c(O)c(/C=C/C=Nc3ccccc3)c(=O)[nH]c2=O)cc1", "Potency": "inconclusive: 12.6 µM [inhibitor, single point]"}
{"smiles": "COc1cc2c3cc1Oc1cc(ccc1O)C[C@@H]1c4c(cc(OC)c(O)c4Oc4cccc(c4)C[C@@H]3N(C)CC2)CC[N+]1(C)C", "activity, negative = active": "inactive: -2.43%"}
{"smiles": "CN1C(=O)C(=Cc2ccc(N3CCCCCC3)o2)C(=O)N(C)C1=S", "Potency": "inconclusive: 2.82 µM [inhibitor, full curve, poor fit]"}
{"smiles": "O=[N+]([O-])/C=C/c1c(Cl)cccc1Cl", "Potency": "inconclusive: 35.5 µM [inhibitor, partial curve, poor fit]"}
{"smiles": "CCc1ccccc1N1C(=O)/C(=C/c2ccc(N3CCN(C)CC3)o2)C(=O)NC1=S", "activity, negative = active": "inactive: -21.4%"}
{"smiles": "O=C1NC(=O)N(c2ccccc2)C(=O)/C1=C\\C=C\\c1ccccc1", "Potency": "inconclusive: 35.5 µM [inhibitor, single point]"}
{"smiles": "O=[N+]([O-])c1ccc(NCc2ccccc2)c2nonc12", "activity, negative = active": "inactive: 8.42%"}
{"smiles": "CN1C2CCC1/C(=C/c1ccccn1)C(=O)/C2=C\\c1ccccn1", "Potency": "inconclusive: 0.562 µM [inhibitor, full curve, poor fit]"}
{"smiles": "CCN(CC)c1ccc(/C=N/c2sc3c(c2C#N)C2CCN3CC2)c(O)c1", "Potency": "inconclusive: 2.24 µM [inhibitor, partial curve, poor fit]"}
{"smiles": "CN1C(=O)C(=Cc2ccc(Sc3ccccc3)o2)C(=O)N(C)C1=S", "activity, negative = active": "inactive: -3.39%"}
{"smiles": "CC(C)n1c(=O)c(C=Nc2cccc([N+](=O)[O-])c2)c(O)n(CCc2ccccc2)c1=O", "Potency": "inconclusive: 11.2 µM [inhibitor, partial curve, poor fit]"}
{"smiles": "C[C@H]1C[C@@H](C)C(=O)[C@@H]([C@H](O)CC2CC(=O)NC(=O)C2)C1", "activity, negative = active": "inactive: -4.98%"}
{"smiles": "O=c1c2ccccc2nc(/C=C/c2ccc(F)cc2)n1-c1ccccc1O", "Potency": "inconclusive: 22.4 µM [inhibitor, single point]"}
{"smiles": "CCOC(=O)c1c(N)n(CCCOC(=O)c2ccco2)c2nc3ccccc3nc12", "activity, negative = active": "inactive: -13%"}
{"smiles": "CCN(C(=O)CSc1ncccc1C(=O)Oc1cccc([N+](=O)[O-])c1)c1cccc(C)c1", "Potency": "inconclusive: 25.1 µM [inhibitor, single point]"}
{"smiles": "COc1ccc(S(=O)(=O)N2c3ccc(F)cc3CCC2C)cc1", "note": "(stereo unspecified)", "Potency": "inconclusive: 0.562 µM [inhibitor, full curve, poor fit]"}
